Measurements published in PubChem BioAssay AID651687 (Broad Institute, 2012).
Screen size: about 350,000 compounds; about 600 (0.17%) were called active. Inconclusive means that the source gave no clear call. Such entries were picked first, then a sample of the others.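 The calls were made as follows: active = every replicate shows inhibition of at least 40%; inconclusive = mean inhibition at least 40% but some replicate below; inactive = the rest.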

Assay: inhibitors of PGC1a acetylation signal, primary screen, cell-based, U2OS, AlphaScreen, inhibitor mode (AID 651687);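 also: 0% = neutral control wells and 100% = positive control wells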
Details: AlphaScreen anti-acetyl-lysine, at 15.6 µM, stronger effect = higher value, with virally co-expressed GCN5 acetyltransferase

Q: Which inhibition does the source give for `COc1ccc(-c2cc(=O)c3c(O)cc(O[C@@H]4O[C@H](CO[C@@H]5O[C@@H](C)[C@H](O)[C@@H](O)[C@H]5O)[C@@H](O)[C@H](O)[C@H]4O)cc3o2)cc1O` here?
A: inconclusive: 49.5%

Q: With `C[C@H]1CN([C@@H](C)CO)S(=O)(=O)c2ccc(Br)cc2O[C@H]1CN(C)S(C)(=O)=O` as the molecule, how does the inhibition read?
A: inconclusive: 107%

Q: For `CC1(C)OC(C)(C)/C(=C\c2ccc(OCC(N)=O)cc2)C1=O`, which inhibition is on record?
A: inconclusive: 45.8%

Q: For `CCOc1ccnc(OCC)c1Br`, which inhibition is on record?
A: inconclusive: 44.5%

Q: For `CCCNC(=O)N1CC2(CCN(Cc3cccnc3)CC2)c2c(n(C)c3cc(OC)ccc23)[C@H]1CO`, which inhibition is on record?
A: inactive: 1.26%

Q: With `CC(C)c1ccccc1NC(=O)Cn1c(-c2ccccc2Cl)nc2ccccc21` as the molecule, how does the inhibition read?
A: active: 43.3%

Q: Which inhibition does the source give for `N#Cc1ccc(C(=O)CSc2nnc(-c3ccc(C(F)(F)F)cn3)s2)cc1` here?
A: inconclusive: 47.4%

Q: Which inhibition does the source give for `COCCNC(=O)CCc1c(C)nc2c(c(C)nn2-c2ccc(C)c(C)c2)c1C` here?
A: active: 78.1%

Q: With `COC(=O)CCn1nnc(-c2cccs2)n1` as the molecule, how does the inhibition read?
A: inactive: -1.99%

Q: Which inhibition does the source give for `COc1ccc(C2c3c(oc4ccccc4c3=O)C(=O)N2CCN2CCOCC2)cc1OC` (centres undefined) here?
A: inconclusive: 46.2%

Q: With `Nc1nc(F)nc2c1ncn2[C@@H]1O[C@H](CO)[C@@H](O)[C@H]1O` as the molecule, how does the inhibition read?
A: active: 82.6%

Q: With `O=C(Nc1ccc(F)cc1)c1ccccc1` as the molecule, how does the inhibition read?
A: inconclusive: 52.1%

Q: Which inhibition does the source give for `COC(=O)c1ccc(COC(=O)c2ccc(SC)cc2OC)cc1` here?
A: inactive: -0.115%

Q: For `COCCn1c(SC(C)C(=O)Nc2ncc(Cl)cc2Cl)nc2ccccc21` (centres undefined), which inhibition is on record?
A: active: 43.6%

Q: Which inhibition does the source give for `CCN(CC)C(=O)[C@H]1CC(CC(=O)NCc2cccc(C(F)(F)F)c2)C(=O)N2CCc3c([nH]c4ccccc34)[C@]12C` (some centres undefined) here?
A: inconclusive: 54.1%

Q: Which inhibition does the source give for `C[C@@H]1CN([C@@H](C)CO)S(=O)(=O)c2ccc(-c3ccccc3)cc2O[C@@H]1CN(C)C(=O)c1ccccc1F` here?
A: inconclusive: 42.3%

Q: Which inhibition does the source give for `COc1ccccc1-c1ccccc1[C@H]1[C@@H](C#N)N(C(=O)C2CC2)[C@H]1CO` here?
A: inactive: 8.81%

Q: For `CC(=O)Oc1ccc(-c2csnn2)cc1`, which inhibition is on record?
A: active: 94.6%

Q: For `CCC(CC)COC(=O)C1=C(C)NC(=O)NC1c1cccc([N+](=O)[O-])c1` (centres undefined), which inhibition is on record?
A: inactive: 4.05%

Q: For `N#Cc1cccc(-c2ccc([C@@H]3[C@@H]4CN(S(=O)(=O)c5ccc(-c6ccccc6)cc5)C[C@H]3N4)cc2)c1`, which inhibition is on record?
A: active: 93%

Q: With `Cc1nc(SCC(=O)O)c(C#N)c2c1CCCC2` as the molecule, how does the inhibition read?
A: inactive: 2.47%

Q: With `O=C(Cc1ccccc1[N+](=O)[O-])Nc1cccc(S(=O)(=O)NC2=NCCCCC2)c1` as the molecule, how does the inhibition read?
A: inactive: -7.04%

Q: With `c1ccc(CN2OCC3Cn4c(nc5ccccc54)C32)cc1` (centres undefined) as the molecule, how does the inhibition read?
A: inconclusive: 40.5%

Q: Which inhibition does the source give for `Cc1ccc(NCCN(C)C)c2c(=O)c3cc(O)ccc3sc12` here?
A: inactive: -48%

Q: Which inhibition does the source give for `O=C(C[C@@H]1CC[C@@H](NC(=O)C2CCC2)[C@H](CO)O1)NCC1CC1` here?
A: inconclusive: 56.2%

Q: For `COCCCNC(=O)c1cc(=O)n(Cc2ccc(Cl)cc2)c2ccccc12`, which inhibition is on record?
A: inconclusive: 45.1%

Q: With `COC(=O)c1cccc2c1-c1ccccc1/C2=N/O` as the molecule, how does the inhibition read?
A: inconclusive: 75.4%

Q: With `CCOc1ccc(OCc2ccc(C(=O)NN=Cc3ccc[nH]3)cc2)cc1` as the molecule, how does the inhibition read?
A: active: 46.5%

Q: Which inhibition does the source give for `COc1cccc(N2C(=NC(=O)c3ccccc3)SC3CS(=O)(=O)CC32)c1` (centres undefined) here?
A: inconclusive: 40.9%

Q: Which inhibition does the source give for `CC(=O)N(C)C[C@H]1Oc2ncc(C#CCc3ccccc3)cc2C(=O)N([C@@H](C)CO)C[C@H]1C` here?
A: inconclusive: 52%

Q: With `O=C(COc1ccc(Cl)cc1Cl)NCCCN1CCOCC1` as the molecule, how does the inhibition read?
A: inconclusive: 40.9%

Q: With `Clc1ccccc1OCCCCN1CCCC1` as the molecule, how does the inhibition read?
A: inconclusive: 42%

Q: With `Cc1nc(SCC(=O)NC2CCCC2)[nH]c(=O)c1C` as the molecule, how does the inhibition read?
A: inconclusive: 42.3%

Q: For `CC(=O)N(C)C[C@H]1Oc2cc(-c3ccc(C#N)cc3)ccc2S(=O)(=O)N([C@@H](C)CO)C[C@@H]1C`, which inhibition is on record?
A: inconclusive: 41.9%

Q: With `O=C(c1cc(-c2ccccc2)nc2ccccc12)N1N=C(C(F)F)CC1(O)C(F)F` (centres undefined) as the molecule, how does the inhibition read?
A: inconclusive: 38.2%

Q: Which inhibition does the source give for `O=C(Nc1ccc2c(c1)OCO2)N[C@H]1CC[C@H](CCNC(=O)C2CCC2)O[C@@H]1CO` here?
A: inconclusive: 46.2%

Q: With `COc1ccc(N2C(=O)CC2(/C=C/c2ccccc2OC)C(=O)NC2CCCC2)cc1` (centres undefined) as the molecule, how does the inhibition read?
A: inconclusive: 44.9%

Q: Which inhibition does the source give for `Cc1ccc(OC[C@H](O)[C@H](C)NC(C)C)c2c1CCC2` here?
A: inconclusive: 44.9%

Q: Which inhibition does the source give for `Cc1ccccc1NC(=O)Nc1ccccc1Br` here?
A: inconclusive: 46.3%

Q: For `CO[C@H]1CN(C)C(=O)c2ccc(NC(=O)NC(C)C)cc2OC[C@@H](C)N(C)C[C@H]1C`, which inhibition is on record?
A: inactive: -10.2%

Q: Which inhibition does the source give for `C[C@@H]1CN([C@H](C)CO)C(=O)c2cc(NC(=O)Cc3ccccc3)ccc2O[C@@H]1CN(C)Cc1ccncc1` here?
A: inconclusive: 49.4%

Q: With `COc1ccc(-c2cnc3c(c2)C(=O)N([C@H](C)CO)C[C@@H](C)[C@@H](CN(C)C(=O)Nc2c(C)noc2C)O3)cc1` as the molecule, how does the inhibition read?
A: active: 43.5%

Q: With `N#Cc1c(-c2ccccc2)c(-c2ccccc2)nn(CC(=O)NNC(=O)Nc2ccc(Cl)cc2)c1=O` as the molecule, how does the inhibition read?
A: inconclusive: 40%

Q: Which inhibition does the source give for `Cc1ccc2nc(SCC(=O)Nc3ccc(F)cc3)nc(=O)n2c1` here?
A: active: 76.3%

Q: Which inhibition does the source give for `CC[C@H](C)[C@H](NC(=O)c1ccc(Cl)cc1)C(=O)OCC(=O)c1ccc2c(c1)NC(=O)CO2` here?
A: inconclusive: 40%

Q: For `CN(C)C(=O)c1ccc(-c2ccc([C@@H]3[C@H]4CN(C(=O)CC5CC5)CC(=O)N4[C@H]3CO)cc2)cc1`, which inhibition is on record?
A: inconclusive: 47.4%

Q: For `Cc1noc(C)c1NC(=O)N(C)C[C@H]1OCCCC[C@@H](C)Oc2ccc(NC(=O)Cc3ccccc3)cc2C(=O)N([C@@H](C)CO)C[C@@H]1C`, which inhibition is on record?
A: inconclusive: 44.4%

Q: With `CCCCC(NC(=O)Cc1c(C)c2cc3c(C)c(C)oc3c(C)c2oc1=O)C(=O)O` (centres undefined) as the molecule, how does the inhibition read?
A: inactive: -6.73%

Q: For `C[C@@H]1CN([C@H](C)CO)C(=O)c2cc(/C=C/c3ccccc3)cnc2O[C@@H]1CN(C)Cc1cccnc1`, which inhibition is on record?
A: inconclusive: 64.7%

Q: For `COC(=O)C12OCC34C(CC5C(C)=C(O)C(=O)CC5(C)C3C(O)C1O)OC(=O)C(OC(=O)C=C(C)C)C24` (centres undefined), which inhibition is on record?
A: inconclusive: 48.5%

Q: For `CC(=O)c1cccc(NC(=O)c2ccccc2-c2ccccc2C(=O)O)c1`, which inhibition is on record?
A: inactive: 6.74%

Q: With `O=C(C[C@@H]1C=C[C@H](NS(=O)(=O)c2ccc(F)cc2)[C@@H](CO)O1)NCc1ccc(Cl)c(Cl)c1` as the molecule, how does the inhibition read?
A: inactive: 0.651%

Q: Which inhibition does the source give for `COc1cccc(C(=O)c2c[nH]c(C(=O)NCCCN3CCOCC3)c2)c1` here?
A: inactive: -1.04%

Q: For `CC(NCc1cccs1)C(=O)NC1CCCCC1` (centres undefined), which inhibition is on record?
A: inconclusive: 44.8%

Q: With `CC(C)(C)C(=O)/C(=C\c1cccc([N+](=O)[O-])c1)n1cncn1` as the molecule, how does the inhibition read?
A: active: 96%

Q: For `Cc1ccc(-c2nc(NC(=O)c3nn(C)cc3[N+](=O)[O-])sc2C)cc1C`, which inhibition is on record?
A: active: 91.2%

Q: With `C[C@@H]1CCCCO[C@H](CN(C)Cc2ccc(C(F)(F)F)cc2)[C@H](C)CN([C@H](C)CO)C(=O)c2cc(NC(=O)Cc3ccccc3)ccc2O1` as the molecule, how does the inhibition read?
A: inconclusive: 41.8%

Q: With `Cc1noc(C)c1NC(=O)N(C)C[C@@H]1Oc2c(NC(=O)Nc3ccc(C(F)(F)F)cc3)cccc2C(=O)N([C@H](C)CO)C[C@@H]1C` as the molecule, how does the inhibition read?
A: inactive: 8.63%

Q: Which inhibition does the source give for `CCN1CCN(C(c2cccnc2)c2c(NC(=O)c3ccco3)sc(C)c2C)CC1` (centres undefined) here?
A: inactive: -4.96%

Q: With `CCOCCOC(=O)C(C)Oc1ccc(Oc2nc(Cl)ccc2Cl)cc1` (centres undefined) as the molecule, how does the inhibition read?
A: active: 88.5%

Q: With `Cc1c(Cl)c([N+](=O)[O-])nn1CC(=O)NCc1cccnc1` as the molecule, how does the inhibition read?
A: inconclusive: 41.8%

Q: Which inhibition does the source give for `CC1CCCCC1NC(=O)C1CCN(S(=O)(=O)N2CCOCC2)CC1` (centres undefined) here?
A: inconclusive: 42.9%

Q: Which inhibition does the source give for `NC(=NC(=O)c1ccccc1)N1CCOCC1` here?
A: active: 84.1%

Q: With `NCC[C@H]1CC[C@@H](NC(=O)C2CCCCC2)[C@@H](CO)O1` as the molecule, how does the inhibition read?
A: inconclusive: 55.8%

Q: Which inhibition does the source give for `COc1cccc(/C=N/Nc2cc(Cl)nc(C)n2)c1O` here?
A: inactive: -13.3%

Q: For `COC(=O)c1cccc(NC(=O)CSc2nnc(C)n2C)c1`, which inhibition is on record?
A: inconclusive: 47.3%

Q: For `COc1cccc(C(O)c2nc(-c3cccc4cccnc34)cs2)c1` (centres undefined), which inhibition is on record?
A: inactive: -2.52%

Q: For `CCN1C(=O)CCCc2ccccc21`, which inhibition is on record?
A: active: 67.7%

Q: For `O=C(C/C=N/OCc1c(Cl)cccc1Cl)c1cnc(-c2ccccc2)s1`, which inhibition is on record?
A: inconclusive: 47.1%

Q: With `CC(C)C#Cc1cnc2c(c1)C(=O)N([C@@H](C)CO)C[C@@H](C)[C@@H](CN(C)C(=O)c1ccccn1)O2` as the molecule, how does the inhibition read?
A: inconclusive: 43.7%

Q: Which inhibition does the source give for `CCOc1ccccc1NC(=O)Cn1c(=O)sc2ccccc21` here?
A: inactive: -5.11%

Q: With `CCC(=O)Nc1ccnc(-c2cccnc2)n1` as the molecule, how does the inhibition read?
A: inconclusive: 41.5%

Q: Which inhibition does the source give for `CN1CCN(C(=O)C[C@@H]2CC[C@@H]3[C@H](COC[C@H](O)CN3CC3CCCCC3)O2)CC1` here?
A: inconclusive: 47.1%

Q: For `C[C@H](CO)N1C[C@H](C)[C@@H](CN(C)CC2CC2)Oc2cc(-c3cccnc3)ccc2S1(=O)=O`, which inhibition is on record?
A: inconclusive: 45.3%

Q: With `O=C(NC1CCCCC1)c1cccnc1C(=O)O` as the molecule, how does the inhibition read?
A: inconclusive: 50.6%

Q: Which inhibition does the source give for `CO[C@H]1CN(C)C(=O)c2ccc(NC(=O)NC(C)C)cc2OC[C@H](C)N(C)C[C@H]1C` here?
A: inactive: 0.606%

Q: With `O=C(N[C@@H]1CC[C@H](CCNS(=O)(=O)c2ccc(F)cc2)O[C@@H]1CO)C1CCCC1` as the molecule, how does the inhibition read?
A: inactive: 1.27%

Q: With `Cc1cccc(CSc2nnc(-c3ccccn3)n2N)c1` as the molecule, how does the inhibition read?
A: inactive: -2.65%

Q: Which inhibition does the source give for `C[C@H](CO)N1C[C@H](C)[C@@H](CN(C)S(=O)(=O)c2ccc(Cl)cc2)Oc2ccc(NC(=O)C3CC3)cc2CC1=O` here?
A: inactive: -3.68%
